# Measurements published in the BET-seq Pho4 binding data (Le et al. 2018).
# The list shows a part of the results. The energies were worked out here from pooled read counts, against the library average; single values are noisy.
# Target: T1, Pho4 (S. cerevisiae) (UniProt P07270)
# T1 sequence: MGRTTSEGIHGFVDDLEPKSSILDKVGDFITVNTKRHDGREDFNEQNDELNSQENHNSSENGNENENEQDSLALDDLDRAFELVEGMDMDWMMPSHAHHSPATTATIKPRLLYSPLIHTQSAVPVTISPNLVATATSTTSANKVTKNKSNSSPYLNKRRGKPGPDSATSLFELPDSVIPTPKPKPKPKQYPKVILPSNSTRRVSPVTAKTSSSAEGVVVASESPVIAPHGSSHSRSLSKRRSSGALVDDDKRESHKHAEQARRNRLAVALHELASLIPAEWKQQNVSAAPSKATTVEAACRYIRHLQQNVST
# Assay: relative binding free energy (BET-seq); higher = weaker binding
# Conditions: reference: library average
row,Sequence,relative binding free energy [kcal/mol]
1,TGCTGCACGTGTGTAA,0.03
2,TGTGTCACGTGCAGGG,0.03
3,GTTTGCACGTGTTAAA,0.13
4,ATTGCCACGTGGGCTT,-0.19
5,TCGGGCACGTGTTAGA,-0.03
6,AGCGTCACGTGTTGAG,0.06
7,TAGAGCACGTGGCGGT,-0.13
8,GTGGTCACGTGGGACG,0.06
9,CTTGACACGTGTTGCG,0.07
10,ATACTCACGTGGTGTG,0.02
11,TTTATCACGTGAAAAT,0.51
12,CTGGACACGTGTGTGA,0.02
13,GTTGTCACGTGATGGG,0.25
14,TAGGACACGTGTTGCA,0.03
15,AGTGGCACGTGATGGG,0
16,GATGTCACGTGGAATG,0.27
17,AGTGTCACGTGAGTCT,0.16
18,CAGGTCACGTGTGTCT,0.16
19,ATGGCCACGTGTGAAG,0.09
20,TTAGGCACGTGCGAGT,-0.09
21,TGTAGCACGTGAGCGC,0.06
22,AGTTACACGTGTATGT,-0.05
23,TATAGCACGTGGTTTA,-0.21
24,GGGGGCACGTGTTGCG,-0.05
25,TTAGTCACGTGTTAAG,0.15
26,GGGATCACGTGCTCGG,0.12

row,Sequence,relative binding free energy [kcal/mol]
1,GTCTACACGTGTATGG,0.11
2,GGACGCACGTGGGAGG,-0.24
3,ATTGTCACGTGTGTCA,0
4,CGTGACACGTGCGTGT,-0.17
5,TTCGTCACGTGGCGTT,-0.01
6,TGAGACACGTGGGTGT,-0.15
7,TTGTGCACGTGCGAGA,0.08
8,GTTGTCACGTGTTATT,0.16
9,AGTGTCACGTGAAGGA,0.37
10,TTCTTCACGTGGTGTG,0.21
11,TTGCTCACGTGATTGA,0.32
12,TAATCCACGTGTGAGG,0.18
13,TTGTGCACGTGACGCG,0.03
14,TGCGTCACGTGATTGT,0.18
15,TTGGGCACGTGTATTC,0.06
16,TACAACACGTGGGTTG,-0.14
17,GTGGTCACGTGCGGAA,0.15
18,TAGCACACGTGGTGTG,-0.22
19,CTGTTCACGTGATGAG,0.32
20,TTTATCACGTGGAGGG,0.2
21,ATGTACACGTGTATTG,0.05
22,AGAGTCACGTGAATAT,0.32
23,GAAAGCACGTGGAGGG,-0.07
24,AGCGACACGTGTGGTG,0
25,CGAGTCACGTGGGAAG,-0.06
26,GCGTTCACGTGGTGAT,0.35

row,Sequence,relative binding free energy [kcal/mol]
1,GTGAACACGTGAAGTT,0.25
2,ATTATCACGTGGTGGT,0.1
3,ATTTTCACGTGGCTGA,0.18
4,CGGGACACGTGGAGGA,0.09
5,TGCATCACGTGTGATG,0.28
6,GTTGTCACGTGATAGT,0.33
7,GGGTGCACGTGCGATT,0.16
8,TGTATCACGTGTGCGT,0.07
9,TTAATCACGTGGTCAT,0.15
10,TGGTGCACGTGAGACT,0.18
11,TGTGGCACGTGGCACT,-0.21
12,GGGTCCACGTGCTTGT,-0.02
13,GTGTACACGTGTGCAT,0.02
14,AGTTTCACGTGCGCTG,0.23
15,TGATACACGTGGTTAT,-0.09
16,TGGTGCACGTGGTATG,-0.11
17,ATATACACGTGGATTG,0.08
18,AGTTACACGTGGGGGG,0.03
19,AGTTACACGTGGATAT,0.07
20,TATATCACGTGGGTGA,-0.03
21,TAGTACACGTGAGGGC,0.33
22,CGGTGCACGTGATGTT,0.05
23,AGTGGCACGTGCGCTA,-0.17
24,TTATTCACGTGCGAAG,0.36
25,CGTGTCACGTGGTGTC,-0.07
26,TATTTCACGTGATTTT,0.31

row,Sequence,relative binding free energy [kcal/mol]
1,GTCGACACGTGATTTT,0.38
2,TTTTCCACGTGTTCGT,-0.04
3,TTTGGCACGTGCCGGT,-0.17
4,ATGAGCACGTGTGCGT,-0.09
5,TGGCGCACGTGAGGGG,0.16
6,CTTTTCACGTGTGATT,0.2
7,TGTGGCACGTGCAAGC,-0.08
8,TCCGGCACGTGTTAGT,0.04
9,TTGGACACGTGGAAGT,0.02
10,TATACCACGTGGTTGT,-0.2
11,TAGGACACGTGACTGG,0.03
12,TATGTCACGTGACGCT,0.2
13,AAAATCACGTGAGGTA,0.44
14,TGTGTCACGTGTTGGG,0.19
15,TGTTGCACGTGTCTGG,0.06
16,GATGCCACGTGGCGGG,-0.01
17,AGGGCCACGTGGAGGC,-0.08
18,GAATGCACGTGGAATG,0.24
19,GAAGGCACGTGATGTG,0.06
20,ACGGGCACGTGATTAT,0.05
21,ATGTTCACGTGTTTAC,0.05
22,TTTGCCACGTGCTGGT,-0.12
23,TTGCGCACGTGGTGAA,-0.27
24,AGAGGCACGTGTGCTT,-0.11
25,TGCCTCACGTGTTGAG,0.33
26,TGGGCCACGTGTCGGT,-0.09

row,Sequence,relative binding free energy [kcal/mol]
1,TGGCGCACGTGTGATG,-0.14
2,TACTGCACGTGTTTAT,-0.03
3,GACGGCACGTGGGGCT,-0.17
4,GTTTACACGTGTGGGA,0.26
5,GGTATCACGTGTGCAG,-0.01
6,CTGTTCACGTGGTTCG,0.16
7,AGTTTCACGTGCGGAT,0.32
8,ATGGACACGTGTAGAG,0
9,TCATTCACGTGTTAGT,0.29
10,CGTAGCACGTGGGCTG,-0.27
11,GGCGTCACGTGAGGCG,0.29
12,AGTGACACGTGTGATT,0.05
13,GAGGTCACGTGATAGT,0.26
14,GGGGGCACGTGGGTTA,-0.24
15,GGTCGCACGTGACGGT,0.09
16,TAGTGCACGTGAAATG,0.24
17,TGTTGCACGTGTTAGG,0.08
18,CTGTTCACGTGCAGGT,0.3
19,GCGTGCACGTGATGGT,0.13
20,TTTACCACGTGGAAGG,-0.01
21,GGTTGCACGTGTTGGA,0.09
22,TTCTTCACGTGAGGGC,0.38
23,GGTTGCACGTGGACTC,0.29
24,GATTGCACGTGAACGG,0.28
25,TAGAACACGTGCTTGT,0.02
26,AGGGTCACGTGTTCTT,0.24

row,Sequence,relative binding free energy [kcal/mol]
1,CAATTCACGTGAGTTG,0.36
2,TTTGGCACGTGGATGG,0
3,TGATACACGTGGGGCG,-0.05
4,TCTGCCACGTGTGGTG,-0.06
5,ACTGGCACGTGGTAGT,-0.15
6,CGTGGCACGTGCTGGG,-0.19
7,GGGCTCACGTGGCAGG,0.15
8,GTGGGCACGTGATTGT,0.01
9,CGGGCCACGTGGTGTT,-0.23
10,GGGCTCACGTGGGGCC,0.22
11,GTAATCACGTGTATGT,0.16
12,AAGTACACGTGATGAT,0.19
13,AAATGCACGTGGTGGA,-0.14
14,AAAGGCACGTGTTCGG,0.04
15,TTAAACACGTGGATGA,0.11
16,TTATTCACGTGGCGAG,0.11
17,AAGTTCACGTGTTTAG,0.37
18,TTGTACACGTGTTTTT,0.22
19,GGGGTCACGTGCATTA,0.21
20,GGGTGCACGTGTATAA,0.04
21,AGGGGCACGTGCCTAG,-0.25
22,GGCGGCACGTGTCTGG,-0.09
23,TGCAGCACGTGTAAGT,-0.06
24,GAGGCCACGTGGGCGT,-0.18
25,CTTTGCACGTGGGGCA,-0.09
26,GGGAGCACGTGCGTTT,-0.12

row,Sequence,relative binding free energy [kcal/mol]
1,TTGTGCACGTGGTGTG,-0.1
2,GAAGTCACGTGGGTGG,0.05
3,ATTTGCACGTGGGGAA,0
4,GGTGGCACGTGGAATG,-0.01
5,GTTGGCACGTGGCGGC,-0.1
6,TGCAGCACGTGGCGTG,-0.08
7,GTGCGCACGTGACTGG,0.06
8,GATGCCACGTGGGGGT,-0.19
9,AAGTGCACGTGTGGAC,0.06
10,GATGGCACGTGTGTTT,-0.07
11,TCGTGCACGTGGGTTA,-0.25
12,CGAACCACGTGGGGGG,-0.14
13,CTAAGCACGTGTGTTG,-0.11
14,TGGGGCACGTGAGGTT,0.16
15,GTTCGCACGTGGCAGG,-0.07
16,CGTTACACGTGGGTGT,0.04
17,AGGTGCACGTGGGTGG,-0.17
18,CTGTGCACGTGATAAT,0.06
19,GAGACCACGTGTGGTG,0.09
20,TGAATCACGTGAGTAT,0.31
21,TTTGGCACGTGGTCGG,-0.11
22,GGGGGCACGTGGGACC,-0.09
23,AATGGCACGTGTTTTA,0.11
24,ATGTGCACGTGCTGGG,-0.09
25,GGAGACACGTGGAGCG,-0.02
26,TGGAACACGTGTTTAA,-0.01

row,Sequence,relative binding free energy [kcal/mol]
1,CTTATCACGTGAGGAG,0.27
2,CATGTCACGTGTGGGA,0.12
3,TGCGTCACGTGGTTTG,0.14
4,CTTGTCACGTGCGAGT,0.11
5,CATTGCACGTGGTTCG,0
6,ATTTTCACGTGAGAGA,0.45
7,TGAAACACGTGTTGGT,0.06
8,TAATACACGTGTATAT,-0.05
9,GTAATCACGTGTATGG,0.08
10,AGTTACACGTGGTGGA,0.09
11,TGTTTCACGTGATAAG,0.15
12,ATTGCCACGTGTGTTA,0.01
13,GCTGGCACGTGTCGTG,-0.15
14,TGTATCACGTGGCATG,0.04
15,TGGCGCACGTGTATTA,-0.07
16,CATTGCACGTGGTGGG,-0.1
17,ATTCACACGTGGGGGT,-0.13
18,AGTGGCACGTGGGACG,-0.12
19,GCGTTCACGTGACGGG,0.39
20,TAGCTCACGTGTGTAT,0.18
21,GTCTGCACGTGTTAAT,0.07
22,TGGTACACGTGGGTCC,-0.02
23,TTATGCACGTGAAAGT,0.26
24,TAAGTCACGTGATGGC,0.2
25,TGTTTCACGTGGATGC,0.29
26,AATAACACGTGTGGTT,-0.05

row,Sequence,relative binding free energy [kcal/mol]
1,GTTATCACGTGGGCTG,0.17
2,TGGTCCACGTGGGGCG,-0.13
3,AAATCCACGTGGGGTG,-0.2
4,TTAAGCACGTGGCGGT,-0.14
5,CTTATCACGTGGTTAA,0.18
6,ATAAGCACGTGTGAGT,0.02
7,CAGGTCACGTGTTGGG,0.09
8,GGGTACACGTGTTGTC,0.21
9,CAAGTCACGTGGGCGT,-0.01
10,TAGTTCACGTGTCTGA,0.37
11,GGTATCACGTGAGGGA,0.33
12,GGTAACACGTGTTGGC,0.02
13,GAGTACACGTGTAGGT,0.21
14,AATTTCACGTGATCGT,0.17
15,ATATACACGTGGAGGG,0.09
16,TATGCCACGTGGGGGT,-0.2
17,TTATTCACGTGGAGGG,0.26
18,ATAGCCACGTGGGTTA,-0.26
19,GTGGGCACGTGTATCA,-0.04
20,AGAAGCACGTGGTGGG,-0.12
21,GGGTTCACGTGCGTCG,0.28
22,GGTCGCACGTGGTCAG,-0.17
